Measured values published in patent US12274759B2, “Affibody proteins specific for B7-H3 (CD276)” (THE BOARD OF TRUSTEES OF THE LELAND STANFORD JUNIOR …, priority 2018, dated 2025).
Where “and” joins values, the source holds several entries; their conditions need not be identical. Equal values may be shown once.

How the values were obtained:
[1] = biological target: T1, hB7-H3 on tumor vasculature (MS1hB7-H3 cells) (Homo sapiens, UniProt Q5ZPR3); test: In vivo ultrasound molecular imaging of orthotopic MDA-MB-231 tumors co-implanted with MS1hB7-H3 cells in nude mice; conditions: Example 3, left flank tumors, 5×10^7 MB intravenously
T1 construct: expressed in transfected cells; host or cells: MS1 (MILE SVEN 1) mouse vascular endothelial cells, ATCC CRL2279
T1 sequence (Q5ZPR3 29-534): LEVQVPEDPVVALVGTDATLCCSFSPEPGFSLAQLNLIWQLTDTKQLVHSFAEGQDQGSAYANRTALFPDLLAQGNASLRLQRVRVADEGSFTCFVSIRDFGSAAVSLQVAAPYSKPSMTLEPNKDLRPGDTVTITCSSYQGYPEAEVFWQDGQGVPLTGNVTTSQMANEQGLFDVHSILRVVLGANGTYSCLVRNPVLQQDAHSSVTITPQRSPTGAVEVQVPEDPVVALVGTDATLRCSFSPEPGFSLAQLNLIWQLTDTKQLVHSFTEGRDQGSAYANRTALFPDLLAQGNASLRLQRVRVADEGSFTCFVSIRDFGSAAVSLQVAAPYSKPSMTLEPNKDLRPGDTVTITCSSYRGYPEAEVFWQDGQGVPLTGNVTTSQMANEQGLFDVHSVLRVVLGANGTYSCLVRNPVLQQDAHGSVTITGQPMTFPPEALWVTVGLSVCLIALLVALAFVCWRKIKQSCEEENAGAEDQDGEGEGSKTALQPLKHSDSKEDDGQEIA
Excerpt: (§1) Two mouse models of breast cancer. All experiments were approved by the Institutional Administrative Panel on Laboratory Animal Care. An orthotopic human breast cancer model with tumors from MDA-MB-231 cells stably expressing firefly luciferase (f-luc) reporter gene mixed in matrigel with either MS1WT or MS1hB7-H3 cells expressing renilla luciferase (r-luc) reporter gene was used for establishing tumors in the contralateral flanks of nude (nu/nu) mice (The Jackson Laboratory). Reporter expression details are provided in the supplemental document.
(§2) 1×10^6 MDA-MB-231/f-luc cells were mixed with 5×10^6 MS1/r-luc cells and implanted on the fourth mammary glands: MS1hB7-H3ir-luc cell mixture on the left flank and MSIWT/r-luc cell mixture on the right flank. Imaging was performed in the nude mice after two weeks of tumor cell engraftment with a mean size of 4 mm (range, 3-5 mm).
(§3) Ultrasound (US) molecular imaging. Contrast-enhanced US imaging was performed using a dedicated small-animal high resolution US imaging system (Veno 2100; VisualSonics). All mice were kept anesthetized with 2% isoflurane in room air at 2 L/min on a heated stage at 37° C. throughout the US molecular imaging sessions. […]

[2] = test system: MDA-MB-231 tumors with MS1WT cells; test: In vivo ultrasound molecular imaging of orthotopic MDA-MB-231 tumors co-implanted with MS1WT cells in nude mice; set-up: species or system mouse; conditions: Example 3, right flank tumors, 5×10^7 MB intravenously
Excerpt: as §1, §2, §3

soluble B7-H3 = biological target: T2, soluble B7-H3 (Homo sapiens, UniProt Q5ZPR3); test: Binding of microbubbles to soluble B7-H3 by flow cytometry; conditions: Example 1; compared to non-targeted MBs
T2 sequence (Q5ZPR3 29-466): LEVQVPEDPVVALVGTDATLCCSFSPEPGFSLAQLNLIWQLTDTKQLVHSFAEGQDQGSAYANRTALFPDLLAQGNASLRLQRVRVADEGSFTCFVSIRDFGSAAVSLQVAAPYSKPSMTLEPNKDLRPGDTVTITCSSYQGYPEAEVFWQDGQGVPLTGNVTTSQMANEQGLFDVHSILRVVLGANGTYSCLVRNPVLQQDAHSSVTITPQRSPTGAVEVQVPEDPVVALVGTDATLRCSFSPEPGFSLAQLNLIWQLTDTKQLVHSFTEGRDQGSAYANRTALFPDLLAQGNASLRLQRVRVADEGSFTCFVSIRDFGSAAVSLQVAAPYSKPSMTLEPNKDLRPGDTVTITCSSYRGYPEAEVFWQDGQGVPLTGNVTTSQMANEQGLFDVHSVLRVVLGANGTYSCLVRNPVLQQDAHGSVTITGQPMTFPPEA
Protocol: The affibodyB7-H3-MBs were created by attaching affibodyB7-H3 to the shell of synthesized perfluorobutane-filled phospholipid MBs. Subsequently, the binding of affibodyB7-H3 -MBs to a soluble B7-H3 was assessed by flow cytometry. Non-targeted MBs and anti-B7-H3 antibody-decorated MBs (anti-B7-H3-MBs) were used as controls. All microbubble constructs were then tested for their molecular imaging capabilities in a transgenic breast cancer mouse model (FVB/N-Tg(MMTV-PyMT)634Mul/J).

US molecular imaging signal in orthotopic tumors with MS1hB7-H3 cells [1]: 8.4±3.3 a.u. | binding to soluble B7-H3, in vitro flow analysis (soluble B7-H3): high-affinity binding
B1: MBABY-B7-H3: contrast microbubbles functionalized with ABYB7-H3 (biotinylated ABY on streptavidin-coated, lipid-shelled perfluorocarbon MB) (conjugate)
chain: AEAKYAKEKIFAVGEIYWLPNLTHGQIMAFIAALNDDPSQSSELLSEAKKLNDSQAPKHHHHHH
US molecular imaging signal in orthotopic tumors with MS1WT cells [2]: 1.4±1.0 a.u. and 1.6±0.6 a.u.
